In the RNAGym collection of RNA variant scans (doi:10.7554/elife.90254):
Read counts are not given, so values of variants with three or more changes are uncertain.

B1: LINE1-full (parent)
chain: UACGUAGGUGGUUUUCCCCUGAUAGUGCUAAGGGGGCCUGGAAGUUUGGACUGGGCAGAGCUCAACACAGCGUGGCAAAGUGGCUGUGGCUAGACUGCCUCUCUGGAUUCCUCGUCACUCAGCAGGGCAUCUCUGAGAGAAAUGCC

Variants of: B1
Assay: self-cleavage, relative activity (ratio to wild type); higher = more cleavage; in vitro, sequencing; the parent is a self-cleaving ribozyme

Question: For G21A A30U A79U U100C, which self-cleavage is on record?
Answer: Its self-cleavage is 1.27.

Question: For A6G A30G A42G A65U A94G A140G, which self-cleavage is on record?
Answer: The self-cleavage was 2.3.

Question: For U26C A124U G126U, which self-cleavage is on record?
Answer: The self-cleavage was 1.39.

Question: With A31U G35A A43G A107G U112A A141G as the variant, how does the self-cleavage read?
Answer: The self-cleavage was 2.2.

Question: With A24G C116U A136G as the variant, how does the self-cleavage read?
Answer: The self-cleavage was 1.39.

Question: With U12C U26C U109C U112A U119A as the variant, how does the self-cleavage read?
Answer: The self-cleavage was 1.02.

Question: For C3U A43G U47G U52A G70A U119C, which self-cleavage is on record?
Answer: Its self-cleavage is 0.23.

Question: For U14A G35A U39C A92G A107G, which self-cleavage is on record?
Answer: The self-cleavage was 0.

Question: For U13C A94G U96C, which self-cleavage is on record?
Answer: The self-cleavage was 0.

Question: Which self-cleavage does the source give for U20A U46A U100A here?
Answer: Its self-cleavage is 0.86.

Question: For G7A A22G A64U, which self-cleavage is on record?
Answer: The self-cleavage was 0.53.

Question: For U15C A43G C99A, which self-cleavage is on record?
Answer: Its self-cleavage is 0.74.

Question: With U1C G35A G55A as the variant, how does the self-cleavage read?
Answer: Its self-cleavage is 0.13.

Question: Which self-cleavage does the source give for U47C A50G U52A U102C here?
Answer: The self-cleavage was 1.84.

Question: For A107G U115A A129U, which self-cleavage is on record?
Answer: Its self-cleavage is 1.69.

Question: With U12C A22G C38U U46C U91A A117U A140G as the variant, how does the self-cleavage read?
Answer: Its self-cleavage is 0.64.

Question: With U15C A94G U96C U130C as the variant, how does the self-cleavage read?
Answer: The self-cleavage was 0.

Question: Which self-cleavage does the source give for U14C U39C A141G here?
Answer: The self-cleavage was 0.68.

Question: With U73G U119A U130A as the variant, how does the self-cleavage read?
Answer: The self-cleavage was 1.89.

Question: Which self-cleavage does the source give for U47C A94G U112C here?
Answer: The self-cleavage was 0.
